Measured values: the supplement of paper PMC3334620
The full ranking holds about 33,000 sequences; the median of “E-score (-0.5 to 0.5)” is about -0.032, and the highest 2% start at about 0.36. The list shows a part of the results.

target: T1, Sko1 (UniProt Q02100); test: PBM E-score (8-mer binding enrichment) (E-score (-0.5 to 0.5)); higher = stronger / more preferred TF binding; most listed sequences are background and not binding sites; settings: protein concentration: 200 nM; construct: GST-full length
T1 sequence: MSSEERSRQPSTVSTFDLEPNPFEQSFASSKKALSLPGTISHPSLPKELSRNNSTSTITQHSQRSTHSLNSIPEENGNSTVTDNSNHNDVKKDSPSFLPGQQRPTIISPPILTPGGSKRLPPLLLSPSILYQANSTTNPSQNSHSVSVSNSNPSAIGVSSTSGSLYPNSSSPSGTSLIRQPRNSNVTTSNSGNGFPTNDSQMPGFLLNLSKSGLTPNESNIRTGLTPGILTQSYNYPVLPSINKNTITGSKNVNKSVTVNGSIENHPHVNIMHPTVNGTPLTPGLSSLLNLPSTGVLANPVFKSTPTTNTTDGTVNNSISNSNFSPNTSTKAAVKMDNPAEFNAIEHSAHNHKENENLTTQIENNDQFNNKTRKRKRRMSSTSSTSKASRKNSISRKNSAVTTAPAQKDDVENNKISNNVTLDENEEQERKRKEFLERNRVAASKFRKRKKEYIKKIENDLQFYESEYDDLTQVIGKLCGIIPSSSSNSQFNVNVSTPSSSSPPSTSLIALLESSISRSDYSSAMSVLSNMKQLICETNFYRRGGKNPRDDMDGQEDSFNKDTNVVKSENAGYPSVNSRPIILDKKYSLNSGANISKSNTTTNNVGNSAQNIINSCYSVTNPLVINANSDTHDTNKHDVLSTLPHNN
In short: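 Detection of bound protein used fluorescent anti-GST, with scans normalised by masliner. The proteins were GST-tagged yeast transcription factors applied at about 100-200 nM to universal all-10-mer Agilent arrays made double-stranded by primer extension. Each ungapped eight-base word, pooled with its reverse complement, was scored with an E-score from the Universal PBM Analysis Suite.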

| Sequence | PBM E-score |
| --- | --- |
| AGGCTGAA | -0.18 |
| GTGAGCGA | -0.0539 |
| CAGGAGCG | -0.175 |
| CCGTCTCC | -0.189 |
| AAGGGTGA | 0.016 |
| GACCGTGC | -0.0619 |
| ACTCGTAT | 0.198 |
| AGAGACCC | -0.278 |
| ACTTAACT | 0.184 |
| CTCGGGCC | -0.192 |
| CAATGGAC | 0.0791 |
| CTGGGCTC | -0.309 |
| GAGCGAAA | 0.117 |
| CCCAGACC | -0.206 |
| CGAGTCCA | -0.3 |
| ATTTAGCG | 0.0277 |
| ACCACAAC | 0.158 |
| CCGCCCAG | -0.138 |
| GACTGCTA | -0.28 |
| ACTGCATA | 0.0646 |
| GAGCATAC | 0.0798 |
| ACAACCAA | 0.0246 |

| Sequence | PBM E-score |
| --- | --- |
| AAAGCTTA | 0.141 |
| CGAATTCC | -0.0114 |
| AGTCCCAC | -0.274 |
| ATGCAATA | 0.166 |
| TCACTTCA | -0.00086 |
| CGAAATAA | 0.233 |
| GCAACAAC | 0.129 |
| AGCACCGG | -0.227 |
| GGTGTAGA | -0.139 |
| GCCTGGCA | -0.326 |
| AATAAAAT | 0.215 |
| ATCTCCAC | 0.0316 |
| AAGCGTTC | -0.207 |
| GATTCCCA | -0.202 |
| AGACATCT | -0.104 |
| AGCATCCT | -0.106 |
| AGACAACA | -0.0177 |
| TCTCTCAA | 0.127 |
| ACAAATAT | 0.134 |
| GGAGCGTA | 0.0129 |
| ATTAGTCC | 0.00156 |
| AAGACACC | -0.0885 |

| Sequence | PBM E-score |
| --- | --- |
| AAACTAAC | 0.15 |
| ACTCGTTA | 0.0383 |
| CTGGTAAG | -0.0775 |
| ACATATTA | 0.286 |
| AGGTTTGA | -0.119 |
| AAGAGGAA | -0.021 |
| ATGTGTGG | -0.144 |
| GGCGGTAC | -0.148 |
| GATGCGCA | 0.201 |
| TCAGCGCA | -0.0184 |
| CTAGAATC | -0.0473 |
| GCTTGGCC | -0.255 |
| CTGTCACC | -0.181 |
| CATGTCAG | 0.0017 |
| CTTTAAAG | 0.124 |
| GAAGCCTA | -0.0692 |
| GATCAAAC | -0.0182 |
| AGTGAGCC | -0.245 |
| AGTTGACG | 0.29 |
| CATCACTC | 0.11 |
| TCAGCCCA | -0.149 |
| CACTAACA | 0.0382 |

| Sequence | PBM E-score |
| --- | --- |
| ATCGTCAT | 0.469 |
| ACACGAAC | 0.0399 |
| CGTTTCAC | 0.168 |
| CCTTCAAC | -0.0402 |
| CCCGTACG | 0.0984 |
| CCTGCCTC | -0.36 |
| ACGACTGG | -0.0614 |
| CGGGGCAA | -0.309 |
| AGACTATA | 0.00094 |
| AATTTCCT | -0.118 |
| CAGGATCC | -0.045 |
| TTAGAGAA | -0.00929 |
| CACGGACG | 0.0947 |
| CGCTTGCC | -0.171 |
| CGACGTCA | 0.486 |
| CAATTAAA | 0.182 |
| AGTAAACC | -0.205 |
| CGGACACA | -0.153 |
| ACCGAAGT | -0.0926 |
| GGGAGGAC | -0.184 |
| CCCTCAGA | -0.338 |
| ATGCCTCC | -0.118 |

| Sequence | PBM E-score |
| --- | --- |
| AATAGTCC | -0.172 |
| GAACCCCC | -0.488 |
| GATCGGAC | -0.124 |
| GTTACCCA | -0.0337 |
| ATATGCAC | 0.145 |
| AGGTGGTC | -0.233 |
| ATCGTTGG | -0.00227 |
| AAGTATCA | 0.0647 |
| ACCTGAGG | -0.271 |
| GCGATAGA | -0.0272 |
| AAGATTAC | 0.152 |
| ACACGCGG | -0.0951 |
| GCTACACC | -0.169 |
| ATATAGCA | 0.0531 |
| CAAACCAA | -0.0239 |
| ACATGTAG | 0.164 |
| GCCTGGAA | 0.0112 |
| CGCTACCC | -0.317 |
| CAACACTG | -0.0331 |
| CGTTCAGA | -0.0912 |
| AGTACAAA | 0.00733 |
| CGGCGATA | -0.0431 |
